Test results published in US20170202915A1 (TUFTS UNIVERSITY, published 2017).

Molecular target: T1, podoplanin (human, UniProt Q86YL7 23-162, O-glycosylated with alpha2,3-sialyl glycans)
T1 construct: whole, on cells; Endogenous protein from LEC lysates in the pulldowns and co-immunoprecipitation; also called PDPN
T1 sequence (looked up): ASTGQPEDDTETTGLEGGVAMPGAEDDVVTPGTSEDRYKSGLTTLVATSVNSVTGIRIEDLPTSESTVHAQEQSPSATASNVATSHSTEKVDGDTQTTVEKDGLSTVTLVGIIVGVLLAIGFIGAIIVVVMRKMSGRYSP
Experiment: galectin-agarose pulldown from LEC lysates, anti-PDPN western blot (FIG. 7A)

binding result: no binding
B1: recombinant galectin-1 (other)
chain: not shown
notes: also called Gal-1
